Several values for one entry are separate records, joined by “and”; a condition that tells them apart may be missing. Identical values can stand only once. About 6,400 (1.6%) of roughly 410,000 compounds were called active. The shares of active, inactive and inconclusive entries below differ from those in the screen. Calls come from the whole dose curve; as a rule, active = well fitted inhibition curve with a large enough effect; inconclusive = small, poorly fitted or top-dose-only effect; inactive = no such curve, though single readings can be large or run the other way. Potencies of inconclusive entries are doubtful fits and often do not repeat.
Biological target: Glucagon-like peptide 1 receptor (Homo sapiens) (UniProt P43220)
Experiment: qHTS of GLP-1 Receptor Inverse Agonists (Inhibition Mode); note: nearly all actives have a fitted effect of over 55% in size
Details: HEK293 GLP-1R CRE-luciferase, luminescence, 24 h, GLP-1R form is constitutively active; series mostly up to 38.3 µM
In short: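 Assay principle: reduced luminescence from a cAMP-responsive reporter in HEK293 cells co-expressing a constitutively active GLP-1R. Conditions: 24 hr compound incubation, 37 deg C, 5% CO2.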
Potency is the fitted concentration of half-maximal effect; tags give direction and shape of the fitted curve.

Sequence of UniProt P43220 (P43220 whole entry, looked up): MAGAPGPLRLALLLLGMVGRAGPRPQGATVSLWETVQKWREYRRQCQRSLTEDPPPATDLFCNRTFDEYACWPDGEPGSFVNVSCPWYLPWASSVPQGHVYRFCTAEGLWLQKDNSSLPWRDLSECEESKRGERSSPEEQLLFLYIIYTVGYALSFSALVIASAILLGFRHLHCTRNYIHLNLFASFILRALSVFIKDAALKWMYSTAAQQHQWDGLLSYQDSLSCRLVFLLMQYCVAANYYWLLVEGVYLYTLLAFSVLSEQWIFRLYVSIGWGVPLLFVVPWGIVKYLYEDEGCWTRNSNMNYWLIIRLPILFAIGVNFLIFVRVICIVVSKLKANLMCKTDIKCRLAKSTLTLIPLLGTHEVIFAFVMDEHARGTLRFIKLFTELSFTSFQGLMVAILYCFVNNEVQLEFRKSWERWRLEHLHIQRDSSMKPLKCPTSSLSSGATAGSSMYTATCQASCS

Potency, inactive:
Cc1oc2ncn(CC(C)C)c(=O)c2c1C(=O)N1CCN(c2cccc(C(F)(F)F)c2)CC1
CCNc1nc(NC(C)C)nc(OCC)n1
CC(C)Nc1cc(C(F)(F)F)nc(-c2ccccn2)n1
O=[N+]([O-])c1cccc(NC(=S)NCCc2ccccc2)c1
COc1ccccc1CNC(=O)CC12CC3CC(CC(Br)(C3)C1)C2
O=C(NCC1CCCO1)c1ccc(F)c2ccccc12 (stereo not given)
O=C1Cc2cc(NS(=O)(=O)c3ccc(Cl)cc3)cc3c2N1CCC3
Nc1ccc(NC(=O)NC2CCCCC2)cc1[N+](=O)[O-]
CC(C)C(=O)Nc1ccc2c(c1)C(=O)N(CCC(=O)O)C2=O

Potency, inconclusive:
COc1ccc(NC(=S)NCCc2c[nH]c3ccccc23)cc1 28.2 µM [inhibitor, single point]
CSc1ccccc1OCc1cc(C(=O)NCCn2ccnc2C)no1 5.62 µM [inhibitor, partial curve]
O=C(Nc1ccn(Cc2ccccc2F)n1)c1ccc(COc2ccc(Cl)cc2Cl)o1 15.8 µM [inhibitor, single point]
Cc1ccc(O)c(C(=O)c2cnn(-c3ccccc3)c2)c1 28.2 µM [inhibitor, single point]
COc1ccc(C(=O)NCCn2cc(SCC(=O)Nc3cccc(C)c3)c3ccccc32)cc1 11.2 µM [inhibitor, partial curve, poor fit]
CCOC(=O)C1=CCN(S(=O)(=O)c2cccc(Cl)c2)C1c1ccc(F)cc1 (stereo not given) 12.6 µM [inhibitor, single point]
Cc1ccc(S(=O)(=O)NCCC(=O)NC2CCCCCC2)cc1 17.8 µM [inhibitor, partial curve, poor fit]
Cc1ccc(-c2nc(C(=O)NCCCN(C)C)cc3c2[nH]c2ccccc23)cc1 14.1 µM [inhibitor, single point]
COc1ccc(CCNC(=O)C2CCCN(S(=O)(=O)c3ccccc3)C2)cc1 (stereo not given) 11.2 µM [inhibitor, partial curve, poor fit]
Cc1cccc(NC(=O)c2cccc(S(=O)(=O)N(C)c3ccccc3)c2)n1 0.501 µM [inhibitor, full curve, poor fit]
CCn1c(=O)n(CC)c2cc(N3CCCCC3)c(NC(=O)Nc3cc(C)cc(C)c3)cc21 12.6 µM [inhibitor, single point]
COc1ccc(OC)c(NC(=O)C(Sc2ccccc2)c2ccccc2)c1 (stereo not given) 31.6 µM [inhibitor, partial curve, poor fit]
C1=CC(c2cc3ccccc3o2)OC(CCc2ccccc2)C1 (stereo not given) 28.2 µM [inhibitor, single point]
Cc1cc(C)nc(NC(=O)c2ccc(COc3ccccc3Cl)cc2)c1 8.91 µM [inhibitor, partial curve, poor fit]
O=C(/C=C/c1ccccc1Cl)c1ccc(O)cc1 22.4 µM [inhibitor, single point]
Cc1ccc(/C=C2\SC(=S)N(CCC(=O)NCCCN3CCOCC3)C2=O)cc1 2.24 µM [inhibitor, full curve, poor fit]
COc1ccccc1NC(=O)C1=C(C)Nc2nc3ccccc3n2C1c1cccs1 (stereo not given) 2.24 µM [inhibitor, partial curve, poor fit]
CCOc1ccc(NC(=O)C(NS(=O)(=O)c2cccc3nsnc23)c2ccccc2)cc1 (stereo not given) 10 µM [inhibitor, partial curve, poor fit]
Cc1ccc2oc(/N=C(\N)NC(=O)C3CC3)nc2c1 7.94 µM [inhibitor, partial curve, poor fit]
COc1ccccc1/C=C1\SC(=S)N(CCC(=O)N2CCCCC2CCO)C1=O (stereo not given) 10 µM [inhibitor, partial curve, poor fit]
COc1ccc(CN2CC(COCc3ccccc3)Oc3ccccc3S2(=O)=O)cc1 (stereo not given) 20 µM [inhibitor, single point]
O=S(=O)(NC1CCCC1)c1ccc(S(=O)(=O)N2CCCN(Cc3ccccc3)C2)cc1 28.2 µM [inhibitor, single point]
Cc1cccc(-c2noc(CN(C(=O)COc3ccc(Br)cc3C)C(C)C)n2)c1 28.2 µM [inhibitor, single point]
Cc1ccc2nc(/C(C#N)=C\c3ccc(Oc4ccc([N+](=O)[O-])cn4)cc3)[nH]c2c1 10 µM [inhibitor, partial curve]
COc1ccc(NC(=S)NN(C)C(=S)Nc2ccc(OC)cc2)cc1 2.24 µM [inhibitor, full curve, poor fit]
COc1ccc(CNC(=O)C2CCCN(S(=O)(=O)c3ccccc3)C2)cc1 (stereo not given) 7.94 µM [inhibitor, partial curve, poor fit]
Cc1cccc(N2CCN(C(=O)NCc3noc4ccccc34)CC2)c1C 10 µM [inhibitor, single point]
CN(c1ccccc1)c1nc(N2CCCC2)nc(-n2ccnc2)n1 31.6 µM [inhibitor, partial curve, poor fit]
NC(Cc1ccc(C(F)(F)F)cc1)c1csc(Nc2ccc(S(N)(=O)=O)cc2)n1 (stereo not given) 17.8 µM [inhibitor, partial curve, poor fit]
Cc1ccc(CSCCNC(=O)CN(c2cccc([N+](=O)[O-])c2)S(C)(=O)=O)cc1 10 µM [inhibitor, partial curve]
Cc1ccn2c(Nc3ccccc3C)c(-c3ccccn3)nc2c1 12.6 µM [inhibitor, single point] and 25.1 µM [inhibitor, single point]

— PubChem BioAssay AID624417 (National Center for Advancing Translational Sciences (NCATS), 2012)
